Test results: PubChem BioAssay AID493208 (National Center for Advancing Translational Sciences (NCATS), 2011)
In all, about 44,000 compounds went through this assay and about 340 (0.77%) were called active. About 5% were inconclusive and are not listed. Calls come from the whole dose curve; as a rule, active = well fitted inhibition curve with a large enough effect; inconclusive = small, poorly fitted or top-dose-only effect; inactive = flat fitted curve, though single readings scatter. This is one part of the list.

assay: Acumen qHTS Assay for Inhibitors of the mTORC1 Signaling Pathway in MEF (Tsc2-/-, p53-/-) Cells: Sytravon; details: phospho-rpS6 immunofluorescence/PI, 24 h; series mostly up to 38.3 µM; activity change, negative = inhibition: at the top concentration; note: nearly all actives have a fitted effect of over 50% in size
Description: NIH Molecular Libraries Probe Production Centers Network [MLPCN] NIH Chemical Genomics Center [NCGC] MLPCN Grant: NS059428-01 Assay Submitter (PI): Blenis, John; Hoffman, Greg; Harvard University NCGC Assay Overview: The mammalian target of rapamycin (mTOR) is an intracellular serine/threonine kinase Aberrant regulation of mTOR signaling plays a causative role in a number of human diseases, including cancer, benign tumors such as lymphangioleiomyomatosis (LAM) and Tuberous Sclerosis Complex (TSC), and metabolic diseases such as diabetes and obesity. This project aims to identify inhibitors of ribosomal protein S6 (rpS6) phosphorylation. The phosphorylation of rpS6 is a key event downstream of mTOR activation. The assay uses a phospho-specific antibody of phospho-rpS6 to detect inhibitors of mTOR activation. Mutations in the Tsc1 and Tsc2 genes are the underlying genetic lesions responsible for TSC, causing constitutive activation of the mTORC1 pathway and leading to profound effects on cell metabolism. Aberrant metabolism in cancer has recently received significant attention as a target to develop therapeutic agents in the treatment of cancer.1 As Tsc2-/- cells have lost the ability to respond to energy and growth factor deprivation, these cells are unable to properly down regulate cellular biosynthetic processes in response to metabolic stress, and are thus extremely sensitive to glucose deprivation-induced death.2 A central goal of this project is to explore the unique cell survival and metabolic properties of cells with Tsc1 or Tsc2 by screening for compounds that selectively target the Tsc2-/- MEFs by screening both Tsc2-/- and WT MEF cell lines. We hope to better understand these aspects of TSC physiology in order to exploit them for therapeutic benefit.
NCGC Acumen Assay Protocol Summary: For quantitative high throughput analysis of mTORC1 signaling, we developed a cell-based assay for immuno-fluorescence based detection of rpS6 phosphorylation on the Acumen Explorer that will be used a platform for the primary small molecule screen. Mouse embryonic fibroblasts (MEFs) are cultured in 1536-well plates using DMEM + 10% FBS. Twenty-four hrs after plating, test compounds (solubilized in DMSO) are delivered and incubated with the cells for 24 hrs at 37 degree Celsius. Following the incubation, media with compound is aspirated and the cells are fixed in 4% paraformaldehyde (PFA) containing PBS + 0.2% TX-100. Next, PFA is aspirated, cells are washed two times with PBS plus 0.2% TX-100 and the cells are blocked for 1 hr at room temperature (blocking buffer: LiCOR Blocking Buffer plus 0.2% TX-100). […] Cells are washed two times with PBS plus 0.2% TX-100, and stained with 10 uM propidium iodide (PI) for 20-25 minutes for cell number measurement (1:500 dilution of Hoescht staining is also added for IN Cell imaging). The plates are scanned on the Acumen Explorer laser scanning instrument (TTP Labtech) using the 488nm laser for simultaneous excitation of the Alexa-488 and PI. […] The normalized phospho-S6 staining is calculated as the ratio of the integrated Alexa 488 intensity divided by the integrated PI intensity for the single concentration rapamycin control (7.5 nM) and DMSO columns. […] Inhibition of the pathway is defined based on the normalized phospho-S6 intensity in rapamycin treated cells. Active cells are defined as those with a normalized phospho-S6 staining above this threshold, and each treatment is reported as the % positive cells in the well, where thresholds are defined by selecting wells with the highest and lowest signal and differentiating between the % non-active and % active populations. In addition to the pathway specific phospho-S6 endpoint, the number of PI stained cells from the Acumen is recorded as a measure of cell viability. The primary screen was performed with a MEF cell line in a defined genetic background, Tsc2-/-, p53-/- cell line stably transfected with an empty vector control (Tsc2-/- MEF).
Potency is the fitted concentration of half-maximal effect.

Row | Compound | activity change, negative = inhibition | Potency
1 | COc1cc2[nH]c(=O)n(-c3ccc(C)cc3)c(=O)c2cc1OC | inactive: -5.39% | –
2 | CCN(CC)C(=O)c1ccc(NC(=O)COc2ccc(-c3nn(C)c(=O)c4ccccc34)cc2)cc1 | inactive: -16.3% | –
3 | CCOc1ccc(N(C(C)C(=O)Nc2cc(Cl)ccc2OC)S(C)(=O)=O)cc1 (stereo not given) | – | active: 7.36 µM
4 | Cc1ccc2c(=O)n(-c3cccc(Cl)c3)c(=O)[nH]c2c1 | inactive: -3.18% | –
5 | Cc1ccc2nc(NC(=O)c3cccn(Cc4ccccc4F)c3=O)sc2c1 | inactive: 0.0858% | –
6 | O=c1c2ccccc2nc(/C=C/c2cccc3ccccc23)n1-c1ccc(Cl)cc1 | inactive: 4.04% | –
7 | COc1cc(OC)cc(C(=O)Nc2ccc(Cl)cc2C(=O)c2ccccc2Cl)c1 | inactive: 4.58% | –
8 | CCC12CN3CC(CC)(CN(C1)C3c1c(C)[nH]c(=O)[nH]c1=O)C2=O (stereo not given) | inactive: 0.759% | –
9 | COc1cccc(-n2c(/C=C\c3ccc(Cl)cc3)nc3ccccc3c2=O)c1 | inactive: 10.4% | –
10 | c1cnc2c(c1)ncn2C1CCNCC1 | inactive: 0% | –
11 | Cc1ccc(C(C)(C)C)c(OCC(=O)Nc2ccc(Cl)cc2C(=O)c2ccccc2)c1 | inactive: -0.761% | –
12 | Cc1ccc(OCC(=O)N2CCN(Cc3ccc(F)cc3)CC2)cc1 | inactive: -20.5% | –
13 | O=C(COc1ccc(Br)cc1)Nc1ccc(Cl)cc1C(=O)c1ccccc1 | inactive: 0.151% | –
14 | Cc1cc(C)cc(NC(=O)CN2C(=O)CN=C(c3ccccc3)c3cc(Cl)ccc32)c1 | inactive: 1.46% | –
15 | Cc1ccc(-n2c(/C=C\c3ccc(F)c(F)c3)nc3ccccc3c2=O)c(C)c1 | inactive: 6% | –
16 | Cc1ccccc1-c1nn2c(=O)cc(CN3CCN(C(=O)COc4ccccc4Cl)CC3)nc2s1 | inactive: 0% | –
17 | Cc1cccc(OCC(=O)N2CCN(Cc3cc(=O)n4nc(-c5ccccc5Cl)sc4n3)CC2)c1 | inactive: 0% | –
18 | CC(=O)c1cccc(NC(=O)c2cccn(Cc3cccc(C)c3)c2=O)c1 | inactive: -0.59% | –
19 | N#Cc1cc2c(nc1SCC(=O)Nc1cccc(C(F)(F)F)c1)C1CCN2CC1 | inactive: -10.9% | –
20 | COc1ccc(C(c2c(O)c3ccccc3oc2=O)c2c(C)n(C)n(-c3ccccc3)c2=O)cc1 (stereo not given) | inactive: 3.39% | –
21 | CCSc1nnc(NC(=O)c2cccn(Cc3ccccc3Cl)c2=O)s1 | inactive: 0.739% | –
22 | CCOc1ccccc1NC(=O)c1cccn(Cc2ccccc2C)c1=O | inactive: -1.07% | –
23 | Cc1ccc(NC(=O)CN2C(=O)CN=C(c3ccccc3)c3ccccc32)cc1Cl | inactive: -3.79% | –
24 | CCc1ccc(-n2nc(C)c3c2NC(=O)CSC3c2ccccc2C)cc1 (stereo not given) | inactive: -0.671% | –
25 | Cc1ccc(OCC(=O)Nc2ccc(Cl)cc2C(=O)c2ccccc2)c(Br)c1 | inactive: 1.91% | –

Row | Compound | activity change, negative = inhibition | Potency
26 | COc1ccc(NC(=O)CN2C(=O)C(C)N=C(c3ccccc3)c3ccccc32)cc1OC (stereo not given) | inactive: -4.18% | –
27 | Cc1ccc(Cn2cccc(C(=O)Nc3nc4ccc(C)cc4s3)c2=O)cc1 | inactive: -6.15% | –
28 | O=C(Nc1ccc2c(c1)OCO2)c1cccn(Cc2ccccc2)c1=O | inactive: 0.388% | –
29 | O=C(Nc1ccon1)c1cccn(Cc2cccc([N+](=O)[O-])c2)c1=O | inactive: -6.12% | –
30 | Nc1c(C(=O)Nc2ccc(F)c(Cl)c2)sc2nc3c(cc12)N1CCC3CC1 | inactive: -17% | –
31 | CCOc1ccc2nc(NC(=O)c3cccn(Cc4ccc(C)cc4)c3=O)sc2c1 | inactive: -4.76% | –
32 | O=C(Nc1ccc(F)c(Cl)c1)N(Cc1ccc2c(c1)OCO2)C1CCN(Cc2ccccc2)CC1 | inactive: -19.6% | –
33 | Cc1cccc(Cn2cccc(C(=O)Nc3nnc(C)s3)c2=O)c1 | inactive: 0.966% | –
34 | O=C1CC(c2ccc(C(F)(F)F)cc2)c2c(c3ccccc3oc2=O)O1 (stereo not given) | inactive: -21.7% | –
35 | Cc1ccc(-c2nc(CN3C(=O)CN=C(c4ccccc4Cl)c4cc(Cl)ccc43)c(C)o2)cc1 | inactive: 0.411% | –
36 | O=C(Nc1ccc2c(c1)OCCO2)c1cccn(Cc2ccccc2)c1=O | inactive: 0.933% | –
37 | COC(=O)c1ccccc1NC(=O)c1cccn(Cc2cccc(Cl)c2)c1=O | inactive: -6.21% | –
38 | COc1ccc(NC(=O)CCc2nc(C3=CCN(Cc4cccc(Cl)c4)CC3)no2)cc1OC | inactive: 0% | –
39 | N#Cc1cccc(NC(=O)c2sc3nc4c(cc3c2N)N2CCC4CC2)c1 | inactive: 2.47% | –
40 | COc1ccc(CCNCc2ccc3c(c2)n(C)c(=O)n3C)cc1 | inactive: 0.991% | –
41 | O=C1CC(c2ccc(F)cc2)c2c(c3ccccc3oc2=O)O1 (stereo not given) | inactive: -4.27% | –
42 | N#Cc1cc2c(nc1SCC(=O)Nc1ccc(F)c(Cl)c1)C1CCN2CC1 | inactive: -0.0249% | –
43 | CCCC12CN3CC(C)(CN(C1)C3c1ccccn1)C2=O (stereo not given) | inactive: 4.25% | –
44 | O=c1c2ccccc2nc(/C=C/c2ccccc2O)n1-c1ccc(Br)cc1 | inactive: -21% | –
45 | Cc1ccc(-n2nc(C)c3c2NC(=O)CSC3c2ccc(O)cc2)cc1Cl (stereo not given) | inactive: -2.41% | –
46 | Cc1ccccc1-n1c(/C=C/c2ccc(O)cc2)nc2ccccc2c1=O | inactive: -29.3% | –
47 | CC(C)(C)c1ccc(OCC(=O)Nc2ccc(Cl)cc2C(=O)c2ccccc2)cc1 | inactive: -7.31% | –
48 | CCOc1ccccc1CN(CCc1ccc2c(c1)OCO2)Cc1ccc(CC)cc1 | inactive: 0.16% | –
49 | CSc1ncc(C(=O)Nc2ccc(Cl)cc2C(=O)c2ccccc2)c(C)n1 | inactive: 4.89% | –
50 | N#Cc1cccc(NC(=O)CSc2nc3c(cc2C#N)N2CCC3CC2)c1 | inactive: -6.87% | –
